# Out of some 310,000 compounds screened, about 2,200 (0.71%) showed an effect of 50% or more. The effect is printed as a negative number. The list shows a part of the results.
# Target: human ether-à-go-go-related gene (hERG) potassium channel (human, UniProt Q12809)
# Experiment: primary screen, population patch clamp on CHO cells stably expressing hERG
# human ether-à-go-go-related gene (hERG) potassium channel, sequence (Q12809 whole entry, looked up): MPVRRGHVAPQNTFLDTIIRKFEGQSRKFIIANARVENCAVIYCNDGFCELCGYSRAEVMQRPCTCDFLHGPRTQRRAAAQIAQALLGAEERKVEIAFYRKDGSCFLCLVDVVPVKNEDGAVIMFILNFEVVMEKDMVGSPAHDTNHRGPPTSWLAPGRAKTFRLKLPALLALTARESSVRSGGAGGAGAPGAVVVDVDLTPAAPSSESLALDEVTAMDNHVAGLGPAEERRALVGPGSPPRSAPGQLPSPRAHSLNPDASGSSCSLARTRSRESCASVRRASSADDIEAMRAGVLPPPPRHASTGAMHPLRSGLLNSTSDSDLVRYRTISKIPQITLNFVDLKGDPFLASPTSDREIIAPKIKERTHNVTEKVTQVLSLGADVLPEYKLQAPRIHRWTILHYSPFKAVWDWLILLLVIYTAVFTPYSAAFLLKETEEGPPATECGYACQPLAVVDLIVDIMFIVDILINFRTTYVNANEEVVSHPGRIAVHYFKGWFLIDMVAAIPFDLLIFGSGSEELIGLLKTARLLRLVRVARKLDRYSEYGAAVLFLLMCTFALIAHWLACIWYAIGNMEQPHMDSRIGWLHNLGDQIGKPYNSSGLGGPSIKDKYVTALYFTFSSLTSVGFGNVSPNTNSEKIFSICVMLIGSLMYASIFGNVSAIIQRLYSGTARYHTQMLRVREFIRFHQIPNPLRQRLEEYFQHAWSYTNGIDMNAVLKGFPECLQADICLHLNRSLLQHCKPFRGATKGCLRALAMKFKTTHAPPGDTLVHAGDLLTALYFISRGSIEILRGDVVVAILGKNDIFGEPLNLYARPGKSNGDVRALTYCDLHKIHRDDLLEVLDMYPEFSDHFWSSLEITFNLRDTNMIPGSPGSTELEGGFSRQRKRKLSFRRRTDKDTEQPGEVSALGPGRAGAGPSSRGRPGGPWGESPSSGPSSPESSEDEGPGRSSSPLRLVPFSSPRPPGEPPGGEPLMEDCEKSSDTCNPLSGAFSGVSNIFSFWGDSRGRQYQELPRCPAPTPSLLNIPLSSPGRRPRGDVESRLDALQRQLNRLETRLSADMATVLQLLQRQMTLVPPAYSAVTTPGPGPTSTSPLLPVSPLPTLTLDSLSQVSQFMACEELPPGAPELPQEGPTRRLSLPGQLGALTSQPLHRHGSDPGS
row,SMILES,"hERG current change (%, negative = inhibition) at 1uM"
1,CC(=O)Nc1cc(C(=O)OCC(=O)c2ccc(C)cc2)ccc1C,12.3%
2,Clc1ccccc1CSc1nnc(Cn2cnc3ccccc32)n1-c1ccccc1,3.69%
3,COC(=O)NCC(c1cccnc1)N1CCN(c2ccccc2OC)CC1 (stereo not drawn),1.22%
4,CCN(CC)S(=O)(=O)c1ccc(Cl)c(C(=O)Nc2cc(C)nn2-c2ccccc2)c1,-2.61%
5,CCCOc1ccc(-c2nc3c(c(=O)[nH]c(=O)n3Cc3ccccc3)n2CCO)cc1OCC,3.51%
6,Cc1nnc(SCCC#N)n(CCC#N)c1=O,11.6%
7,Cc1nn(C)cc1C(C)NC(=O)c1cc(COc2c(F)cccc2F)on1 (stereo not drawn),7.63%
8,C/C(=N\Nc1nc2ccccc2[nH]1)c1ccc(N2CCOCC2)cc1,8.59%
9,NCCN1CCN(S(=O)(=O)c2ccc([N+](=O)[O-])cc2)C=C1c1ccc(Cl)cc1,-5.08%
10,CCn1ncc(/C=C/C(=O)C2CC2)c1C,21.8%
11,O=C(Nc1ccc2ncccc2c1)c1cccc(Br)c1,8.61%
12,COc1cccc(NC(=O)Cn2c3ccccc3c3nc4n(c(=O)c32)CCCS4)c1,19.5%
13,COc1ccc(CNC(=O)C(c2ccco2)N(C(=O)Cc2cccs2)c2cccnc2)cc1 (stereo not drawn),-2.09%
14,CCOC(=O)c1c(C)[nH]c(=S)c(C#N)c1-c1ccccc1,14.1%
15,Cc1ccsc1/C=N/n1c(=S)[nH]nc(C)c1=O,8.91%
16,CCCCc1ccc(S(=O)(=O)Nc2ccc(C)c(NS(C)(=O)=O)c2)cc1,9.43%
17,O=C(N/C(=C\c1ccco1)C(=O)N1CCOCC1)c1ccccc1Cl,12.9%
18,Cc1ccc(Nc2nnc(SCC(=O)Nc3cccc(S(=O)(=O)NC4=NCCCCC4)c3)s2)cc1,8.15%
19,NC(=O)COc1ccc(/C=N\NC(=O)CC(=O)NCCc2ccccc2)cc1,18.4%
20,O=c1c2ccccc2nnn1CSc1nc2ccccc2[nH]1,0.482%
21,Cc1ccc(S(=O)(=O)N2CCC(C(=O)N3CCC[C@H]3C(=O)NCc3ccccc3)CC2)cc1,5.52%
22,COc1ccc2c(c1)[C@H]1[C@H](CO2)[C@H](c2ccccc2)[C@]2(C)C(=O)N(CC3CCCO3)CC(=O)N12 (stereo partly drawn),13.4%
23,C(=N\N1CCN(c2ccccn2)CC1)/c1ccccn1,16.5%
24,Cc1nn(-c2ccc(C(=O)O)cc2)c(C)c1Cl,10.3%
